In PubChem BioAssay AID2147 (National Center for Advancing Translational Sciences (NCATS), 2009):
About 3,600 (1.6%) of roughly 230,000 compounds were called active. The shares of active, inactive and inconclusive entries below differ from those in the screen. Calls come from the whole dose curve; as a rule, active = well fitted inhibition curve with a large enough effect (not every such curve was filed as active); inconclusive = small, poorly fitted or top-dose-only effect, or another doubt; inactive = no such curve, though single readings can be large or run the other way. Where the call is inconclusive, the potency comes from a doubtful curve fit.

Each compound was assayed against Lysine-specific demethylase 4E (Homo sapiens) (UniProt B2RXH2) (assay: qHTS Assay for Inhibitors of Human Jumonji Domain Containing 2E (JMJD2E)). Details: JMJD2E catalytic domain, FDH-coupled NADH fluorescence (FDH is formaldehyde dehydrogenase); series mostly up to 57.1 µM.
Chain of UniProt B2RXH2 (B2RXH2 whole entry, looked up, the tested form may be a part): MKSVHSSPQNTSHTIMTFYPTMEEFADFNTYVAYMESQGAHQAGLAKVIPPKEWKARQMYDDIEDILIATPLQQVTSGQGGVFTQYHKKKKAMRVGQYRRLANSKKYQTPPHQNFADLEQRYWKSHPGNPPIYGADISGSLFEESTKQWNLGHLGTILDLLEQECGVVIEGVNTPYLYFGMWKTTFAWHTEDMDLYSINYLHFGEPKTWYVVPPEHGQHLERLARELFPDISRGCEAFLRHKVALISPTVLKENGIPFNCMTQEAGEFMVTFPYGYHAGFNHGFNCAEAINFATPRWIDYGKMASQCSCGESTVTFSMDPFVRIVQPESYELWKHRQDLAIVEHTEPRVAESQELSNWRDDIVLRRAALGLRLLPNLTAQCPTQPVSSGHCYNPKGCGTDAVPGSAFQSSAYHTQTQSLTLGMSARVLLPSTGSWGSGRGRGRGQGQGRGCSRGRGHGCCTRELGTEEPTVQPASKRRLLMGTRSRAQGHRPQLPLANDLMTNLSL
Note: nearly all actives have a fitted effect of over 50% in size.
Potency is the fitted concentration of half-maximal effect; tags give direction and shape of the fitted curve.

Row | Structure (SMILES) | Potency
1 | CCOC(=O)c1sc(SC)c2c1CCC/C2=N/OC | inconclusive: 35.5 µM [inhibitor, single point]
2 | COc1cc(/C=C/C(=O)OCC(=O)Nc2cc(C(F)(F)F)ccc2N2CCOCC2)ccc1O | inconclusive: 28.2 µM [inhibitor, single point]
3 | Cc1ccc(-n2c(=O)c(C#N)cc3c(=O)n4cccc(C)c4nc32)cc1 | inconclusive: 3.98 µM [inhibitor, full curve]
4 | CNC(=S)NNC(=O)c1oc2nc(-c3ccccc3)cc(C)c2c1N | inconclusive: 15.8 µM [inhibitor, partial curve]
5 | COc1ccc(CN=C2NN=C(c3ccc(Cl)cc3)CS2)cc1 | inconclusive: 35.5 µM [inhibitor, single point]
6 | O=[N+]([O-])c1ccc(N/N=C/c2ccc(O)c(O)c2O)c(S(=O)(=O)N2CCOCC2)c1 | active: 7.94 µM
7 | CCN1c2ccccc2-c2nc3ccccc3n2C1c1ccco1 (stereo not drawn) | inconclusive: 31.6 µM [inhibitor, partial curve]
8 | COc1cc2c(cc1NC(=O)COc1ccccc1OC)oc1ccccc12 | inactive
9 | O=C(N/N=C/C1CC=CCC1)c1cc(Br)ccc1O (stereo not drawn) | inconclusive: 35.5 µM [inhibitor, single point]
10 | COc1ccc(N=C2NC(=O)/C(=C\C=C\c3ccco3)S2)cc1 | inconclusive: 39.8 µM [inhibitor, single point]
11 | Cc1ccc(S(=O)(=O)Oc2ccc(/C=C(/NC(=O)c3ccccc3)C(=O)O)cc2)cc1 | inactive
12 | O=C(O)c1cccc(NC(=O)c2cc(S(=O)(=O)N3CCOCC3)cs2)c1 | inconclusive: 0.562 µM [inhibitor, full curve]
13 | CC(C)(O)[C@@H]1Cc2c(ccc3ccc(=O)oc23)O1 | inconclusive: 31.6 µM [inhibitor, partial curve]
14 | CNC(=O)/C(C#N)=C/c1cc(C)n(-c2ccc(N3CCOCC3)cc2)c1C | inconclusive: 39.8 µM [inhibitor, single point]
15 | C#CCOCCOCCOCCNc1nc(N2CCN(C(=O)[C@H](CCC(=O)O)n3cc(C(N)CC(C)C)nn3)CC2)nc(N2CCN(C(=O)[C@H](Cc3ccc(O)cc3)n3cc(C(N)[C@H](C)CC)nn3)CC2)n1 (stereo partly drawn) | inactive
16 | COc1ccc2[nH]c(=O)c(CN(C(=O)c3cccnc3)c3ccc(C)cc3C)cc2c1 | inconclusive: 28.2 µM [inhibitor, partial curve]
17 | O=C(CCC1N=C2c3ccccc3N=C(SCc3ccc(F)cc3)N2C1=O)NCc1ccco1 (stereo not drawn) | inconclusive: 25.1 µM [inhibitor, partial curve]
18 | Cc1ccc(SCC(=O)Nc2cccc(-c3nnc(-c4ccco4)o3)c2)cc1 | inconclusive: 39.8 µM [inhibitor, single point]
19 | Oc1c(C=Nc2ccccc2)sc2ccccc12 | inconclusive: 31.6 µM [inhibitor, partial curve]
20 | COc1ccc2[nH]c(=O)c(CN(CCCN(C)C)C(=O)Nc3ccc(F)cc3)cc2c1 | inconclusive: 25.1 µM [inhibitor, partial curve]
21 | CCOc1ccc(N2CC(O)(c3ccc(F)cc3)[N+]3=C2CCCC3)cc1 (stereo not drawn) | inactive
22 | Cc1ccccc1Nc1nc(N)nc(CSc2nnc(-c3ccccc3)n2C)n1 | inconclusive: 35.5 µM [inhibitor, single point]
23 | COc1cc(Cl)c([C@@H]2C[C@H]3CN(c4ccccc4)C(=O)[C@]34CCCN24)cc1OC | inconclusive: 39.8 µM [inhibitor, single point]

Row | Structure (SMILES) | Potency
24 | Cc1ccc2nc3c(cc(C#N)c(=O)n3-c3nccs3)c(=O)n2c1 | inconclusive: 31.6 µM [inhibitor, partial curve]
25 | O=C(CSCC(=O)N1CCOCC1)Nc1ccccc1 | inactive
26 | Cc1ccc(C)c(CN2CCCNC2=O)c1 | inconclusive: 35.5 µM [inhibitor, single point]
27 | COCCNC(=O)C(C)Oc1ccc(Cl)cc1Cl (stereo not drawn) | inactive
28 | CCOC(=O)c1oc2c(c1C)C(=O)CCC2 | inactive
29 | O=C(N/N=C\C=C\c1ccc2c(c1)OCO2)C1COc2cc3ccccc3cc2O1 (stereo not drawn) | inconclusive: 28.2 µM [inhibitor, partial curve]
30 | NS(=O)(=O)c1cc2c(cc1Cl)N[C@@H](CC1CCCC1)NS2(=O)=O | inactive
31 | COc1ccc(S(=O)(=O)NCCc2csc(-c3cccnc3)n2)cc1 | inconclusive: 39.8 µM [inhibitor, single point]
32 | COC(=O)c1scc(C)c1NC(=O)C1CCCCC1 | inactive
33 | c1ccc(-n2ncc3c(N4CCN(CCOc5cccc6ccccc56)CC4)ncnc32)cc1 | inconclusive: 35.5 µM [inhibitor, single point]
34 | Cc1ccsc1C1Nc2ccc3ncccc3c2C2=C1C(=O)CC(C)(C)C2 (stereo not drawn) | inactive
35 | Oc1ccc2ccccc2c1/C=N/c1nc2c(s1)CCCC2 | inconclusive: 25.1 µM [inhibitor, partial curve]
36 | COc1ccc2[nH]c(-c3ccc(C)cc3)cc(=O)c2c1 | inconclusive: 28.2 µM [inhibitor, partial curve]
37 | COc1cccc(C2C(C#N)=C(C)NC3=C2C(=O)CC(C)(C)C3)c1 (stereo not drawn) | inconclusive: 28.2 µM [inhibitor, partial curve]
38 | O=S(=O)(c1cccc(-c2cn3cccnc3n2)c1)N1CCCCCC1 | inconclusive: 15.8 µM [inhibitor, partial curve]
39 | CCn1c2ccccc2c2cc(NC(=O)COc3ccc(OC)cc3)ccc21 | inconclusive: 35.5 µM [inhibitor, single point]
40 | CCOC(=O)n1cc(-c2cnc(CNC(=O)C(C)(c3ccccc3)c3ccccc3)o2)c2ccccc21 | inactive
41 | CCOC(=O)c1c(NC(=O)c2cccs2)sc(C)c1C | inconclusive: 4.47 µM [inhibitor, single point]
42 | Oc1ccc2oc3c(c2c1C=NCc1ccncc1)CCCC3 | inconclusive: 5.01 µM [inhibitor, single point]
43 | COc1ccc2[nH]c(=O)c(CN(Cc3cccnc3)Cc3nnnn3CC3CCCO3)cc2c1 (stereo not drawn) | inconclusive: 22.4 µM [inhibitor, partial curve]
44 | O=C(CCC(=O)c1ccc(F)cc1)Nc1ccccc1Cl | inactive
45 | CCn1cc(-c2cc(C(F)(F)F)n3nc(C(=O)O)cc3n2)c(C)n1 | inconclusive: 39.8 µM [inhibitor, single point]
46 | COc1cc(C(=O)Nc2ccccc2-c2nnn(CC(N)=O)n2)cc(OC)c1OC | inconclusive: 35.5 µM [inhibitor, single point]

Row | Structure (SMILES) | Potency
47 | O=C(/C=C/c1ccccc1[N+](=O)[O-])Nc1ccccc1 | inconclusive: 15.8 µM [inhibitor, partial curve]
48 | CC(Sc1ccc2nnc(-c3ccc(F)cc3)n2n1)C(=O)O (stereo not drawn) | inconclusive: 28.2 µM [inhibitor, partial curve]
49 | CCOC(=O)c1ccccc1NS(=O)(=O)c1ccc(S(=O)(=O)N2CCCC2)cc1 | inconclusive: 35.5 µM [inhibitor, single point]
50 | CC1CCCC(C)N1/N=C/c1ccc(N(C)C)cc1 (stereo not drawn) | inactive
51 | CCC(=O)N1CCc2cc(S(=O)(=O)CCC(=O)Nc3cccc(C)n3)ccc21 | inactive
52 | O=C(Cc1c(F)cccc1Cl)Nc1ccc(S(=O)(=O)NCC2CCCO2)cc1 (stereo not drawn) | inactive
53 | CCn1c(SCC(=O)N2CCN(c3ccc(F)cc3)CC2)nc2ccccc2c1=O | inactive
54 | CC(C)(C)OC(=O)N[C@@H](Cc1ccccc1)c1nnc(S(=O)(=O)Cc2cccc(F)c2)o1 | inactive
55 | Cc1ccc2c(c1)NC(=O)C(CC(=O)Nc1ccc(CN3CCC(C)CC3)cc1)O2 (stereo not drawn) | inconclusive: 39.8 µM [inhibitor, single point]
56 | c1ccc(Cc2nnc3sc(C4COc5ccccc5O4)nn23)cc1 (stereo not drawn) | inactive
57 | CCCc1nn(C)c(C(=O)Nc2ccc3ccccc3c2)c1Cl | inconclusive: 35.5 µM [inhibitor, single point]
58 | Cc1occc1C(=O)Nc1ccc(S(N)(=O)=O)cc1 | inactive
59 | O=c1c2cc(NC(=S)NCCN3CCCCCC3)ccc2nc2n1CCCCC2 | inconclusive: 31.6 µM [inhibitor, single point]
60 | CCn1nnc(NC(=O)c2ccc(-c3ccc(Cl)cc3)o2)n1 | inconclusive: 28.2 µM [inhibitor, partial curve]
61 | Cc1ccc(NC(=O)N/C=C/c2ccco2)cc1 | inconclusive: 28.2 µM [inhibitor, single point]
62 | Cn1nc2sc3ccccc3n2c(=O)c1=O | inconclusive: 28.2 µM [inhibitor, single point]
63 | O=C(COC(=O)c1n[nH]c2ccccc12)Nc1ccccc1 | inconclusive: 25.1 µM [inhibitor, single point]
64 | COC(=O)c1ccc(OCC(=O)Nc2nn(-c3ccccc3)nc2C(N)=O)cc1 | inconclusive: 6.31 µM [inhibitor, full curve]
65 | N#Cc1ccc(-c2ccc(F)cc2)nc1Oc1ccc(Cl)c(Cl)c1 | inconclusive: 3.16 µM [inhibitor, single point]
66 | CN(CC(=O)N1CCN(c2ccccn2)CC1)S(=O)(=O)c1ccc2ccccc2c1 | inconclusive: 31.6 µM [inhibitor, single point]
67 | FC(F)(F)c1ccc(Cl)c(-n2c(Cc3cccs3)n[nH]c2=S)c1 | inconclusive: 31.6 µM [inhibitor, single point]
68 | CN(C)c1ccc(/C=N\Nc2nc(-c3ccccc3)cc(=O)[nH]2)cc1 | inconclusive: 25.1 µM [inhibitor, single point]
